The list shows a part of the results. At the low end of the ranking the order means little.
These sequences were tested against T1, GST-Rok-C97-191 (UniProt O34857) (assay: protein binding microarray). Settings: Rok is a gene silencer of Bacillus subtilis; high values mean tight binding; most listed sequences are background and not binding sites; double strand, one strand shown.
T1 sequence: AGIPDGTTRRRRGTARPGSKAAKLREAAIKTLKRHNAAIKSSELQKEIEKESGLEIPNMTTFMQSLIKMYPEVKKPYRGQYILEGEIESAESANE
With CACTGACA the binding signal was -0.104 E-score. AGATCCAG showed a binding signal of -0.159 E-score. ATTCGAGA showed a binding signal of 0.0852 E-score. ATCTTGAA was tested, and the binding signal was 0.0632 E-score. With ACTCAATA the binding signal was 0.243 E-score. For ACGTTTAA, the binding signal was -0.0428 E-score. Sequence GAGTAATA has a binding signal of 0.182 E-score. CGCATAAA was tested, and the binding signal was 0.0601 E-score. CTCGAACA showed a binding signal of 0.0547 E-score. Sequence CATCAGAG has a binding signal of -0.134 E-score. Work on CTTACAAC yielded a binding signal of 0.116 E-score. CTATGCGC was tested, and the binding signal was -0.0129 E-score. Work on CCGGTTTC yielded a binding signal of -0.169 E-score. GAAATCCA showed a binding signal of 0.0437 E-score. Work on ATTGTAGA yielded a binding signal of 0.249 E-score. CCAATAGG showed a binding signal of -0.066 E-score. With ATTCGATC the binding signal was 0.263 E-score. For ACTGTCAC, the binding signal was 0.00386 E-score. TCTACTAA gave a binding signal of 0.342 E-score. TCTAGCAA showed a binding signal of 0.213 E-score. CGGGCGGC showed a binding signal of -0.394 E-score. For AGAACTCC, the binding signal was -0.0816 E-score. Sequence TCTATTAA has a binding signal of 0.164 E-score. In the case of GAGCAAGA, the binding signal is reported as -0.102 E-score. With AGCTCCTA the binding signal was 0.0277 E-score. AGGAACCC showed a binding signal of -0.0447 E-score. Work on TAAATAGA yielded a binding signal of 0.216 E-score. In the case of ATCGAATC, the binding signal is reported as 0.0814 E-score. For TACCGCTA, the binding signal was 0.179 E-score. In the case of AACCCAGA, the binding signal is reported as -0.00415 E-score. Work on CCATTTAG yielded a binding signal of 0.0457 E-score. Work on AGTAAAGA yielded a binding signal of 0.0717 E-score. TCAGCTGA gave a binding signal of -0.133 E-score. Sequence AACATACC has a binding signal of 0.247 E-score. For TATGTCAA, the binding signal was 0.108 E-score. Sequence ATAGAAGC has a binding signal of 0.195 E-score. AAGTTTTG was tested, and the binding signal was 0.0673 E-score. ACGAAATA showed a binding signal of 0.193 E-score. For TAGATAGA, the binding signal was 0.345 E-score. In the case of CCCGTGCC, the binding signal is reported as -0.38 E-score. Sequence CAGTCGCA has a binding signal of -0.223 E-score. In the case of CATTGGTC, the binding signal is reported as -0.0344 E-score. With GACTCCTA the binding signal was 0.0377 E-score. With AGCATTAG the binding signal was 0.148 E-score. With CTTACTGA the binding signal was 0.133 E-score. In the case of GAATGACC, the binding signal is reported as -0.153 E-score. Work on GGCTCGTA yielded a binding signal of -0.0948 E-score. Sequence GCATTCGC has a binding signal of -0.249 E-score. ATATTGCA was tested, and the binding signal was -0.0461 E-score. In the case of ACAGATTG, the binding signal is reported as -0.117 E-score. Work on ATTGCCGG yielded a binding signal of -0.00953 E-score. With CCAGCCAG the binding signal was -0.278 E-score. AGTTTGAA was tested, and the binding signal was -0.00731 E-score. Work on GCAATCAC yielded a binding signal of 0.106 E-score. For AAACAGCC, the binding signal was -0.174 E-score. AGTATTGG gave a binding signal of -0.0633 E-score. ATTCGTTC showed a binding signal of 0.0172 E-score. CTTCAATA showed a binding signal of 0.0793 E-score. Work on ACAGACGT yielded a binding signal of 0.0363 E-score. GTGGTCCA was tested, and the binding signal was -0.143 E-score. Sequence ACATGGGT has a binding signal of 0.0579 E-score. CACGTAAG was tested, and the binding signal was -0.041 E-score. For ATTCTACG, the binding signal was 0.179 E-score. GGTCAATA gave a binding signal of 0.102 E-score. With ACAAGCCA the binding signal was -0.228 E-score. With AATCCTAC the binding signal was 0.226 E-score. Sequence CTTATGCA has a binding signal of -0.0393 E-score. With CTGACTTC the binding signal was -0.115 E-score. For AACGCTAA, the binding signal was 0.196 E-score. Work on GCACTCCA yielded a binding signal of -0.0612 E-score. With GTTCCATA the binding signal was -0.0288 E-score. In the case of CGGGATTC, the binding signal is reported as -0.122 E-score. With AAACCACG the binding signal was 0.0774 E-score. For AGACTATA, the binding signal was 0.28 E-score. Work on CGGACTAC yielded a binding signal of -0.00479 E-score. Work on TCATCAAA yielded a binding signal of 0.0122 E-score. With AACGGCCC the binding signal was -0.138 E-score. Work on TCTAGTAA yielded a binding signal of 0.265 E-score. GTCTCAGA showed a binding signal of -0.201 E-score. Sequence ATGAGAGG has a binding signal of -0.162 E-score. AGGCGGAT gave a binding signal of -0.209 E-score. With ACAAACAT the binding signal was 0.239 E-score. Work on AGTCTTAA yielded a binding signal of -0.138 E-score. CATTGGGG was tested, and the binding signal was -0.353 E-score. Sequence AGGCGGCG has a binding signal of -0.155 E-score. With GTTTCGAA the binding signal was 0.0337 E-score. For AAGCAATT, the binding signal was 0.315 E-score. AGATGGAG showed a binding signal of -0.0786 E-score. In the case of GGATTTCA, the binding signal is reported as 0.00664 E-score. GTACTAAA showed a binding signal of 0.329 E-score. Work on CCGGCTAG yielded a binding signal of -0.0397 E-score. TACCGTAA was tested, and the binding signal was 0.278 E-score. CACATCTG showed a binding signal of -0.197 E-score. Sequence AGTCCACT has a binding signal of -0.00972 E-score. CTCGCGAA gave a binding signal of -0.0459 E-score. In the case of ACCCGTTA, the binding signal is reported as 0.0795 E-score. GCCATTGA was tested, and the binding signal was -0.0503 E-score. With CCTTCCAG the binding signal was -0.216 E-score. Sequence AAGCCAGT has a binding signal of -0.14 E-score. Work on AGCTGTCG yielded a binding signal of -0.0124 E-score. In the case of ATGCATGC, the binding signal is reported as -0.17 E-score. ATGGACGA showed a binding signal of -0.199 E-score. ATCTGCCC was tested, and the binding signal was -0.428 E-score. CAATTAGG was tested, and the binding signal was -0.0576 E-score. Sequence CGAGGATC has a binding signal of -0.174 E-score. ATCTACCA showed a binding signal of 0.469 E-score. CGCTTCTC was tested, and the binding signal was -0.0348 E-score. Sequence GACAGCTA has a binding signal of 0.0485 E-score. Sequence GACAATCA has a binding signal of -0.051 E-score. With AGGGGCAT the binding signal was -0.0734 E-score. AAGCATGG was tested, and the binding signal was -0.183 E-score. Work on CGTGTATA yielded a binding signal of 0.22 E-score. With ACCACGGG the binding signal was -0.148 E-score. In the case of CAGGTAAG, the binding signal is reported as -0.108 E-score. In the case of TCTCCTCA, the binding signal is reported as -0.0627 E-score. Sequence AGCGTACC has a binding signal of -0.188 E-score. Work on ACCTCACG yielded a binding signal of -0.122 E-score. CCATATAA was tested, and the binding signal was 0.176 E-score. GGTAGATA gave a binding signal of 0.432 E-score. Work on AGGAGGTA yielded a binding signal of 0.0399 E-score. In the case of CCCCAGAG, the binding signal is reported as -0.266 E-score. For TCAGTAAA, the binding signal was 0.135 E-score. CGATCGTA gave a binding signal of 0.263 E-score. Sequence CACCCACG has a binding signal of -0.0226 E-score. With CGTAAACA the binding signal was -0.123 E-score. ACGAGGAG was tested, and the binding signal was -0.292 E-score. ACTTACTC was tested, and the binding signal was -0.0158 E-score. CCTGATAC showed a binding signal of -0.0177 E-score. In the case of CAGTCTAG, the binding signal is reported as -0.0271 E-score. With CTCGATAA the binding signal was 0.048 E-score. With CAATCATA the binding signal was 0.184 E-score. GATCGAGC gave a binding signal of 0.0223 E-score. AACGGAAC was tested, and the binding signal was 0.0175 E-score. ACTCCGAC was tested, and the binding signal was -0.0322 E-score. In the case of AAGGTGAT, the binding signal is reported as 0.118 E-score. AGTACCCC gave a binding signal of -0.211 E-score. Sequence ACTGTAGA has a binding signal of 0.261 E-score. With CGGATGGC the binding signal was -0.347 E-score. AACTGGGT showed a binding signal of -0.131 E-score. AATGTAGC was tested, and the binding signal was 0.144 E-score. In the case of GGGTGCGA, the binding signal is reported as -0.157 E-score. For AAAAACAA, the binding signal was 0.151 E-score. CTCAGACA showed a binding signal of -0.187 E-score. Sequence CAGAGGGG has a binding signal of -0.298 E-score. CAAGGAAC showed a binding signal of -0.0696 E-score. With AATCTAGG the binding signal was 0.171 E-score. Work on CTCCGAAA yielded a binding signal of 0.0585 E-score. GAATGCTC showed a binding signal of -0.14 E-score. In the case of CCACACAG, the binding signal is reported as -0.172 E-score. Sequence ACAGCAAT has a binding signal of 0.0454 E-score. For TCATGAGA, the binding signal was 0.0167 E-score. For AATAACAA, the binding signal was 0.189 E-score. ACATGTCA was tested, and the binding signal was -0.0154 E-score. For ATACTCAC, the binding signal was 0.158 E-score. Work on ATCTTCTG yielded a binding signal of 0.0126 E-score. Sequence CGCGGTCA has a binding signal of -0.218 E-score. In the case of GTACTTCA, the binding signal is reported as 0.233 E-score. Sequence TCGTGACA has a binding signal of -0.133 E-score. In the case of ACGCCGCT, the binding signal is reported as -0.0905 E-score. GGTCATTA gave a binding signal of -0.103 E-score. In the case of CAACTATG, the binding signal is reported as 0.142 E-score. In the case of ACTGCGCA, the binding signal is reported as -0.154 E-score. For CCTACATC, the binding signal was 0.187 E-score. GACTTCGC showed a binding signal of -0.205 E-score. In the case of ATCAGACC, the binding signal is reported as 0.0209 E-score. In the case of AGAATGGA, the binding signal is reported as -0.0266 E-score. CGCGCGGC was tested, and the binding signal was -0.339 E-score. Sequence CACGAACC has a binding signal of -0.0036 E-score. For ACTCGGTG, the binding signal was 0.0735 E-score. For CAGCGTGC, the binding signal was -0.242 E-score. GGTGAATA showed a binding signal of -0.0913 E-score. With CAGGCGAA the binding signal was -0.198 E-score.

Reference: paper PMC6212790
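Further: rank score from −0.5 (least bound) to 0.5 (best bound).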
